Over roughly 3,600 compounds, “viability index relative to DMSO control” has its median near 0.81; the lowest 2% begin near 0.13. The list shows a part of the results.
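Note: 384-well serum-free SaLSSA: MitoTracker Red CMXRos staining with saponin lysis, high-content imaging, treated-well particle count divided by plate-mean count of DMSO wells.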

For the assay, the system named is Plasmodium falciparum NF54 stage V gametocytes. The assay can be described thus: viability index relative to DMSO control (fraction); higher = less gametocyte killing. The conditions noted are these: 1.25 µM, incubation time: 72 h.
`CCCOC(=O)C1=C(C)NC2=C(C(=O)CC(c3ccc(OC)cc3)C2)C1c1ccccc1F` (configuration not stated): the viability index turned out to be 0.421.
`CN1CCN(c2ccc(Nc3c4ccccc4nc4ccccc34)cc2)CC1` returned a viability index of 0.377.
The figure for `CCOC(=O)c1c(N)n(-c2ccc(NC(=O)c3cccc([N+](=O)[O-])c3)cc2)c2nc3ccccc3nc12` is 1.18; for `CC1CCN(c2nncc3ccccc23)CC1` it is 0.777; for `c1ccc(-c2cccc(-c3ccccn3)n2)nc1` it is 0.904.
Then `O=C(NCCCN1CCCCC1)c1ccc2c(c1)sc1nc(-c3ccc(F)cc3)cn12`, with 0.96; and `COC(=O)c1ccccc1NC(=O)CSc1nc2ccsc2c(=O)n1CCN1CCCC1`, with 1.12.
The figure for `Cn1nc(C(=O)N2CCCCCC2)c2c1CCC(NCC(C)(C)N1CCOCC1)C2` (configuration not stated) is 1.15; for `Cn1c(SCC(=O)Nc2cccc(F)c2)nc2c(c1=O)SCC2` it is 0.843.
Consider `C=CCN1C=CC(=Cc2sc3ccccc3[n+]2C)c2ccccc21`, for which the viability index worked out at 1.07.
Then `O=c1[nH]c2cc(Cl)c(Br)nc2[nH]1`, with 0.902; and `Cc1ccc2nc(C)cc(NCCN(C)C)c2c1`, with 0.895.
Consider `Cc1cc(C)c(CSc2ncnc3[nH]cnc23)c(C)c1`, for which the viability index was 1.37.
As to `CC(Oc1ccc(Cl)cc1Cl)c1nc(-c2ccc(NC(=O)c3ccco3)cc2)no1` (configuration not stated), the viability index is 0.759.
`COc1cccc(CNCCCCCCCCCCCCNCc2cccc(OC)c2O)c1O` returned a viability index of 0.723.
The figure for `COc1ccc(CNCc2cc(-c3ccnc4cc(Cl)ccc34)ccc2O)c(OC)c1` is 0.75.
Then `CCCCOc1ccc(C(=O)Nc2c3c(nn2-c2ccc(C)cc2C)CSC3)cc1`, with 0.661; and `Cc1ccc2ccc(C(Nc3ccccn3)c3ccc(Br)cc3)c(O)c2n1` (configuration not stated), with 0.942.
The figure for `CC(CCc1ccccc1)N1CC(c2cccc([N+](=O)[O-])c2)OC1=S` (configuration not stated) is 0.776; for `CC(C)OC(=O)NC(Nc1ccccc1)C(Cl)(Cl)Cl` (configuration not stated) it is 1.09; for `COc1ccc2nc(NC(=O)c3ccc(C#N)cc3)sc2c1` it is 0.653.
The compound `COc1ccc(C(=O)Nc2ccc3nsnc3c2)cc1OC` yielded a viability index of 0.678.
Consider `COc1ccc(NC(=O)Cn2c(-c3ccc(OC)cc3)cn(-c3ccc(C)cc3)c2=O)cc1`, for which the viability index came out at 0.815.
Regarding `CCOC(=O)C(Cc1ccc(O)cc1)NC1=CC(=O)C(=O)c2ccccc21` (configuration not stated), the viability index was 0.799.
Then `CC(C)CC[n+]1ccccc1C=Cc1ccc(N(C)C)cc1`, with 0.634; and `O=c1c2[nH]c3ccccc3c2ncn1Cc1ccc2c(c1)OCO2`, with 0.991; and `O=C1CC(c2ccccc2)CC2=C1C(c1ccccc1[N+](=O)[O-])Nc1ccccc1N2` (configuration not stated), with 0.849.
Then `Cc1nnc(SCC(=O)NCc2ccco2)n1-c1ccc(F)cc1`, with 0.837; and `CCCn1c(=N)c(C(=O)NC(C)c2ccccc2)cc2c(=O)n3cccc(C)c3nc21` (configuration not stated), with 0.868; and `Cc1ccc(Nc2cc(C)nc(NCc3ccccc3)n2)c(C)c1`, with 0.707.
The figure for `Cc1nc(N2CCN(C)CC2)c2c(C)c(C(=O)NCCN(C)C)sc2n1` is 0.851; for `COc1ccc(C(c2ccc(N(C)C)cc2)c2ccc(N(C)C)cc2)cc1` it is 0.333; for `CCOC(=O)c1sc2ncnc(NCc3ccc(F)cc3)c2c1C` it is 1.14.
In the case of `CSc1nc(N)c2c3c(sc2n1)CCCC3`, the viability index is 0.599.
As for `Cc1ccc(CNC(=O)CCCCCn2c(SCc3cccc([N+](=O)[O-])c3)nc3ccsc3c2=O)cc1`, the viability index was 0.801.
Consider `CCCOC(=O)C1=C(C)NC2=C(C(=O)CC(c3ccc(OC)cc3)C2)C1c1ccc(Cl)cc1Cl` (configuration not stated), for which the viability index came to 0.645.
In turn, `O=C1C(Sc2nc[nH]n2)=CC(=NS(=O)(=O)c2cccs2)c2ccccc21` registered a viability index of 0.707.
The figure for `C=CCn1c(SCC(=O)c2cc(C)n(-c3ccccc3F)c2C)nc2sc3c(c2c1=O)CCCC3` is 0.906; for `Cc1nc(-c2cnccc2C(F)(F)F)sc1C(=O)NN` it is 1.21; for `CN(C)CCCN(Cc1cc2cc3c(cc2[nH]c1=O)OCO3)C(=S)Nc1cccc(Cl)c1` it is 0.703.
As to `O=C(COc1ccccc1)NC(c1ccco1)c1cc(Cl)c2cccnc2c1O` (configuration not stated), the viability index amounted to 1.03.
Turning to `CC(=O)N(C1=C(N(C)C)C(=O)c2ccccc2C1=O)c1ccc(F)cc1`, the viability index turned out to be 0.0453.
The figure for `CN1CCc2c(sc3nc(SCc4ccccc4)n(-c4ccccc4)c(=O)c23)C1` is 0.879; for `CCOC(=O)c1nc2[nH]c(C)cc(=O)n2n1` it is 0.851; for `COC(=O)c1c(C)oc2ccc(N(C(=O)c3ccc(C)cc3)S(=O)(=O)c3ccccc3)cc12` it is 0.891.
Then `CCOc1ccc(Nc2nc(NCc3ccco3)c3ccccc3n2)cc1`, with 0.731.
The figure for `Cc1nc(CC(=O)N2CCCC(CNC(=O)C3(c4ccc(Cl)cc4)CC3)C2)cs1` (configuration not stated) is 0.74; for `CCOc1cc(Br)cc(C=NNC(=O)COc2cccc(C)c2)c1O` it is 1.03; for `NS(=O)(=O)c1ccc(N/C=C/C(=O)c2ccc(Cl)s2)cc1` it is 1.13.
With `CCN1C(=Cc2ccc3ccccc3[n+]2CC)C=Cc2sc3ccccc3c21`, the viability index was 0.425.
`CC1(C)N=C(N)N=C(N)N1c1ccc(F)cc1`: the viability index turned out to be 1.05.
Consider `COc1cc(Cl)c(C)cc1NC(=O)C1c2ccccc2C(=O)N(CC(C)C)C1c1cccs1` (configuration not stated), for which the viability index came to 0.398.
The figure for `CN1C=CC=CC1=CC=C1C=Nc2ccccc21` is 0.778; for `CSc1nnc(-c2cccc([N+](=O)[O-])c2)n1Cc1ccccc1` it is 1.01; for `CC1CCCN(C(=O)C2CCN(Cc3ccccn3)CC2)C1` (configuration not stated) it is 1.01.
Take `Cc1ccc(NC2=C(N3CCCCC3)C(=O)c3ccccc3C2=O)cc1`: the viability index came to 0.735.
Then `CCOC(=O)C1=C(C)NC2=C(C(=O)C(C(=O)OCC)C(c3cccc(OC)c3)C2)C1c1ccc(OC)c(OC)c1` (configuration not stated), with 0.425.
The figure for `CCCOc1ccc(C(=O)Nc2cccc(-c3nc4ncccc4o3)c2)cc1` is 0.984; for `CC(C)c1ccc2c(c1)c1c3c([n+](C)ccn32)CCC1` it is 1.22.
Regarding `CCOc1ccc(C2c3[nH]c4ccccc4c3CCN2C(=O)c2cc3cc(Br)ccc3o2)cc1` (configuration not stated), the viability index came to 0.672.
Then `O=C(Cc1cccs1)N1CCOc2c(cc(-c3csc4ccccc34)cc2OCCc2ccccn2)C1`, with 0.346.
Then `CCCc1nc2ccc(NC(=O)NCC)cc2c(=O)n1Cc1ccc(-c2ccccc2)cc1`, with 0.595; and `O=C1CC(c2ccc(O)cc2)C2=C(CC(c3ccccc3Cl)CC2=O)N1` (configuration not stated), with 0.659.
With `COc1ccc(C(NC(=O)COc2ccccc2)c2cc(Cl)c3cccnc3c2O)cc1OC` (configuration not stated), the viability index was 0.742.
Compound `CCOC(=O)CCCSc1nc(-c2cccs2)cc(C(F)(F)F)c1C#N` showed a viability index of 0.71.
Then `O=C1C(Nc2ccc(O)cc2)=CC(=NS(=O)(=O)c2cccs2)c2ccccc21`, with 0.306.
The figure for `COc1cc(NC(=O)Cn2ccc3ccc([N+](=O)[O-])cc32)cc(OC)c1OC` is 0.73; for `CN(C)c1ccc(C=CC(=O)NC(=O)c2ccccc2O)cc1` it is 0.642.
`Cc1ccc(C(CCNc2ncnc3c2[nH]c2ccccc23)c2ccco2)cc1` (configuration not stated) displayed a viability index of 0.561.
The compound `CC1(C)O[C@@H]2OC([C@@H](O)CNc3ccc([N+](=O)[O-])cc3[N+](=O)[O-])C(O)[C@@H]2O1` (some centres not stated) gave a viability index of 0.61.
Then `CC(=O)N1c2ccccc2NC2=C(C(=O)CCC2)C1c1ccc([N+](=O)[O-])cc1` (configuration not stated), with 0.883; and `O=C(c1cc2n(n1)C(C(F)(F)F)CC(c1ccc3c(c1)OCO3)N2)N1CCN(C(c2ccccc2)c2ccccc2)CC1` (configuration not stated), with 0.682; and `CCOC(=O)c1[nH]c2ccc(C)cc2c1N=NN(C)C`, with 0.57.
`O[Si](CCCN1CCCCC1)(c1ccccc1)C1CCCCC1` (configuration not stated) yielded a viability index of 0.371.
In turn, `c1ccc2cc3c(N4CCN(CCN5CCN(c6ccnc7cc8ccccc8cc67)CC5)CC4)ccnc3cc2c1` came in with a viability index of 0.663.
Then `Cc1cccc(NC(=O)c2sc3nc4c(c(-c5cccs5)c3c2N)CCCCC4)c1`, with 1.01.
Compound `Clc1ccc2c(N3CCC(n4cccc4)CC3)ccnc2c1` displayed a viability index of 0.556.
The figure for `OC1=C2C(=Nc3ccccc3SC2c2ccccc2)c2ccccc21` (configuration not stated) is 0.667.
Then `Cc1ccccc1S(=O)Cc1ccc(C(=O)N2CCN(c3ccccn3)CC2)o1` (configuration not stated), with 0.744; and `CCCCCCCC[n+]1c(C)n(CC)c2ccc(Cl)cc21`, with 0.772; and `c1ccc(-c2nc3cc4ccccc4cc3nc2-c2ccsc2)cc1`, with 0.834.
`COC(=O)CNC(=O)c1sc2ncn(CC(=O)Nc3ccccc3OC)c(=O)c2c1C`: the viability index came out at 0.805.
The figure for `Oc1nnc(SCc2nc3ccccc3s2)n1Cc1ccco1` is 0.954; for `COc1ccc(-n2c(S)nnc2CNc2cccc(C(F)(F)F)c2)cc1` it is 0.767.
Then `CCCOC(=O)C1=C(C)NC2=C(C(=O)CC(c3ccc(OC)c(OC)c3)C2)C1c1ccccc1C` (configuration not stated), with 0.301.
`O=[N+]([O-])c1ccc(N2CCN(C(=S)Nc3ccccc3)CC2)cc1` yielded a viability index of 0.967.
The figure for `O=C1NC(=Nc2ccccc2)SC1=Cc1ccc(F)c(Br)c1` is 0.706.
`COc1ccc(-c2nc(NC(=O)CS(=O)(=O)c3ccccc3)sc2C)cc1` displayed a viability index of 1.02.
Then `O=C1C(=Cc2ccccc2)Oc2c1ccc(O)c2CN1CCCCC1`, with 1.17; and `CC(NC(=O)C(=O)N1CCCCC1)C(c1cccs1)N1CCOCC1` (configuration not stated), with 0.787.
The compound `Fc1ccc(N2CCN(c3ncnc4c3cnn4-c3ccccc3)CC2)cc1` gave a viability index of 1.07.
In turn, `Cc1ccc(Cl)cc1N1C(=O)[C@@H]2[C@H](C1=O)C1c3ccccc3C=CN1[C@@H]2C(=O)c1cccs1` (some centres not stated) had a viability index of 0.87.

These data come from the supplement of paper PMC4723716.
